Data reported in PubChem BioAssay AID1478 (National Center for Advancing Translational Sciences (NCATS), 2009).
Among all 200,000 compounds or so, about 860 (0.43%) were called active. Inconclusive results, whose numbers are uncertain, are shown with a selection of clear calls. The call rests on the fitted dose curve; in most records, active means well fitted inhibition curve with a large enough effect; inconclusive means small, poorly fitted or top-dose-only effect; inactive means flat fitted curve, though single readings scatter. Potencies of inconclusive entries are doubtful fits and often do not repeat.

Target: Cruzipain (Trypanosoma cruzi) (UniProt P25779)
Sequence of UniProt P25779 (P25779 whole entry, looked up): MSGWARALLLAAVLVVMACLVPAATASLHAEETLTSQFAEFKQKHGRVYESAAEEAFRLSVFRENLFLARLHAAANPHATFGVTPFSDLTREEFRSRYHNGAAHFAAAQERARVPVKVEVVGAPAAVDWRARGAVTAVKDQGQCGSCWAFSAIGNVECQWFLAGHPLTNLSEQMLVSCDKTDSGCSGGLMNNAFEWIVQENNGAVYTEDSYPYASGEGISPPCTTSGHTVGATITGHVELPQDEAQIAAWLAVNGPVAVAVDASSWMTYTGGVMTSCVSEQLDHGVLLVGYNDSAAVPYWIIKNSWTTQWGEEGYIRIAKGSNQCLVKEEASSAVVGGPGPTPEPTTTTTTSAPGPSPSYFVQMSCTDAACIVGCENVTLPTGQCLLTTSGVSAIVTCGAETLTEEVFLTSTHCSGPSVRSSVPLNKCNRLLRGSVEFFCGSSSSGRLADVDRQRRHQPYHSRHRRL
Assay: qHTS Assay for Promiscuous and Specific Inhibitors of Cruzain (with detergent); further: nearly all actives have a fitted effect of over 40% in size;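 on max response, negative = inhibition: plate controls were neutral wells for no effect and buffer without enzyme for full effect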
Details: purified cruzain, Z-FR-AMC fluorescence, 0.01% Triton
Summary of the method: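 Purified cruzain (1.5 nM final) was preincubated with compounds for 15 min at room temperature in 100 mM sodium acetate pH 5.5, 5 mM DTT, 0.01% Triton X-100. Reaction started with 2 uM Z-FR-AMC; AMC fluorescence change over 60 s gave activity.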
Potency means the concentration at half of the fitted maximal effect; tags describe the fitted curve by direction and shape.

Row | SMILES | max response, negative = inhibition | Potency
1 | Cc1ccc(CNC(=O)C2CCCN(Cc3nc(-c4cccc(C)c4)oc3C)C2)cc1 (stereo not given) | inactive: 9.92% | –
2 | O=C(Nc1ccc(C(=O)OCc2cc(=O)n3c4c(sc3n2)CCCC4)cc1)c1cccc(F)c1 | inactive: -0.006% | –
3 | O=c1c2ccccc2sc2nc(C3CCCCC3)n(Cc3ccco3)c(=O)c12 | – | active: 15.8 µM
4 | COc1ccc2oc(-c3ccc(C)c(NC(=O)CSc4ccc(Cl)cc4)c3)nc2c1 | – | inconclusive: 31.6 µM [inhibitor, single point]
5 | Cn1cc(C(=O)N2CCN(C(=O)c3ccco3)CC2)c2c3ccccc3n(C)c2c1=O | inactive: -2.63% | –
6 | Cc1cc(C)c(S(=O)(=O)/N=C2\C=CC(=O)C(Cl)=C2)c(C)c1 | – | inconclusive: 31.6 µM [inhibitor, single point]
7 | O=C(COC(=O)COc1ccc(Cl)cc1)NC1CCCCC1 | inactive: 0.394% | –
8 | CC1=C(C)CS(=O)N(S(=O)(=O)c2ccc(Cl)cc2)C1 (stereo not given) | – | inconclusive: 14.1 µM [inhibitor, partial curve]
9 | Cc1ccc2nc(C3CCCN(C(=O)NCc4ccccc4)C3)[nH]c2c1 (stereo not given) | – | inconclusive: 35.5 µM [inhibitor, single point]
10 | Cc1cccc(NC(=S)NC(NC(=O)c2ccco2)C(Cl)(Cl)Cl)c1 (stereo not given) | – | active: 3.16 µM
11 | Cc1ccc(/C=N/Nc2ccnc3cc(Cl)ccc23)c(C)c1 | – | inconclusive: 31.6 µM [inhibitor, single point]
12 | CCOC(=O)CNC(=O)c1ccccc1 | inactive: -2.23% | –
13 | CC(/C=C/c1ccccc1)=N\NC(N)=S | – | inconclusive: 28.2 µM [inhibitor, single point]
14 | O=C(CCN1CCc2ccccc2C1)c1ccc2c(c1)OCCO2 | – | inconclusive: 17.8 µM [inhibitor, partial curve]
15 | CNc1oc(-c2cccs2)nc1C#N | – | inconclusive: 28.2 µM [inhibitor, single point]
16 | O=c1c(-c2cccc(F)c2)nc2cncnc2n1Cc1ccccc1Cl | inactive: -3.37% | –
17 | O=C(CCc1nc(-c2ccccc2)c(-c2ccccc2)o1)OCc1ccc(Br)cc1 | – | inconclusive: 17.8 µM [inhibitor, partial curve]
18 | Cc1ccc(S(=O)(=O)CC#CCOC(=O)c2ccc([N+](=O)[O-])cc2)cc1 | – | active: 14.1 µM
19 | O=C(Nc1cccc(-c2cn3ccccc3n2)c1)c1cccc(Cl)c1 | – | inconclusive: 35.5 µM [inhibitor, single point]
20 | Cc1snc(S(=O)(=O)/C(C#N)=N/Nc2cccc(C(F)(F)F)c2)c1C#N | – | inconclusive: 14.1 µM [inhibitor, partial curve]
21 | COc1cc(/C=C2\SC(=S)NC2=O)ccc1OS(=O)(=O)c1ccccc1 | – | inconclusive: 25.1 µM [inhibitor, single point]
22 | CC(=O)N1CCCc2cc(S(=O)(=O)N(C)CC(=O)Nc3ccc(Cl)cc3C)ccc21 | inactive: -1.37% | –
23 | CCOC(=O)c1sc2ccccc2c1S(=O)(=O)N1CCN(c2ccccc2)CC1 | inactive: -4.32% | –

Row | SMILES | max response, negative = inhibition | Potency
24 | Cc1cccc(Nc2nnc(SCC(=O)Nc3cccnc3Cl)s2)c1 | – | active: 25.1 µM
25 | COC(=O)c1ccc(-c2ncc(-c3cccc4ccccc34)o2)cc1 | – | active: 20 µM
26 | COc1ccc(C2CNC(=O)C2)cc1OC1CCCC1 (stereo not given) | – | inconclusive: 25.1 µM [inhibitor, single point]
27 | Cc1ccc2nc(SCC(=O)Nc3cc([N+](=O)[O-])ccc3F)[nH]c2c1 | – | inconclusive: 25.1 µM [inhibitor, partial curve]
28 | CC(C)OCCCNc1ncnc2c1[nH]c1ccccc12 | – | inconclusive: 28.2 µM [inhibitor, single point]
29 | Cc1cc(C)cc(NC(=O)C2CCCN2S(=O)(=O)c2cccc3nsnc23)c1 (stereo not given) | inactive: -0.966% | –
30 | CCOc1ccc(C2C(C(=O)OC)=CN(CCOC)C=C2C(=O)OC)cc1 | – | inconclusive: 28.2 µM [inhibitor, single point]
31 | CCOC(=O)CNCCC(=O)c1ccc(Br)cc1 | – | active: 25.1 µM
32 | Cc1cccc(N(CC(=O)Nc2ccccc2C(F)(F)F)S(=O)(=O)c2ccccc2)c1C | inactive: -4.82% | –
33 | COc1ccc(C(=O)NCC(=O)OCC(=O)Nc2cc(OC)ccc2OC)cc1 | – | inconclusive: 25.1 µM [inhibitor, single point]
34 | Cc1cccc(NC(=S)N/N=C/c2c[nH]c3ccccc23)c1 | – | inconclusive: 1 µM [inhibitor, full curve, poor fit]
35 | CC1CCC/C(=N\NC(=S)Nc2ccccc2)C1 (stereo not given) | – | active: 14.1 µM
36 | COCCNC(=S)N/N=C/c1ccc(N2CCOCC2)cc1 | – | inconclusive: 31.6 µM [inhibitor, single point]
37 | COc1ccc(NS(=O)(=O)c2ccc3c(c2)[C@H]2C=CC[C@H]2[C@@H](c2ccc(C(=O)O)cc2)N3)cc1 | – | inconclusive: 31.6 µM [inhibitor, single point]
38 | CCOC(=O)c1cc2c(=O)n3ccccc3nc2n(Cc2ccco2)c1=NC(=O)c1cccc(Br)c1 | – | inconclusive: 12.6 µM [inhibitor, partial curve]
39 | N#Cc1c(N2CCN(C(=O)c3ccccc3)CC2)nc(-c2ccccc2)c2c1CCCC2 | – | inconclusive: 25.1 µM [inhibitor, partial curve]
40 | CC(=O)c1ccc(NC(=O)c2ccc3nc(-c4ccco4)c(-c4ccco4)nc3c2)cc1 | – | active: 14.1 µM
41 | O=C(CCC(=O)Nc1ccccc1)N/N=C/c1ccncc1 | – | inconclusive: 25.1 µM [inhibitor, single point]
42 | O=C(CSc1nnc2scc(-c3ccccc3)n12)N1CCN(Cc2ccccc2)CC1 | inactive: -4.77% | –
43 | COc1ccc(CCNC(=O)c2cc3c(=O)n4ccccc4nc3n2C)cc1 | – | inconclusive: 31.6 µM [inhibitor, single point]
44 | Cc1ccc(S(=O)(=O)NCCSCc2ccccc2)cc1 | – | inconclusive: 3.98 µM [inhibitor, full curve]
45 | Cc1ccc(C)c(NC(=O)C(C)n2c(=O)cc(C(F)(F)F)c3c(C)nn(C)c32)c1 (stereo not given) | inactive: -0.493% | –
